Laboratory results taken from PMC12040169 (PLOS Biology, 2025).
The other results are listed elsewhere or left out.

test system: T1, C. trachomatis L2/434/Bu expressing GFP (CTL2-GFP); parameters: species or system HeLa; C. trachomatis total inclusion area by high-content imaging, normalised to DMSO; conditions: total inclusion area; 28.5 h, 10 µM; inhibitor
T1 construct: L2/434/Bu GFP intracellular growth in HeLa cells
Procedure, shortened: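 High-content images of fixed, Hoechst-stained infected cultures supply inclusion area and count (growth) plus nuclei number (viability), complementing bulk GFP/resorufin fluorescence. MIC determination is unchanged from the primary assay.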

Row | Structure (SMILES) | % of control remaining
1 | COCCNc1nc(-c2ccccc2)ccc1C(=O)N(C)CCN(C)C [CBK105913] | 83.6252
2 | OCCn1ncc2c(SC3CCCCC3)ncnc21 [CBK269358] | 86.4567
3 | Clc1ccc(COc2nccnc2OCc2cccnc2)cc1Cl [CBK161597] | 73.8028
4 | CS(=O)(=O)c1ccc(-n2cc(-c3cccnc3)nn2)cc1 [CBK113061] | 110.233
5 | CCOC(=O)C1CCCN(Cc2ccc(OC)cc2)C1 (stereo not shown) [CBK304413] | 66.5701
6 | CCOc1ccccc1NC(=O)c1cc(CC(C)C)oc1C [CBK057904] | 75.114
7 | COC(=O)COc1ccc(C(NC(=O)c2ccccc2)C(Cl)(Cl)Cl)cc1 (stereo not shown) [CBK265437] | 80.6286
8 | O=C1CNC(=O)C2(C/C=C/C[C@H]3COCC[C@H]3N1)CCN(Cc1ccc(F)cn1)CC2 [CBK292160] | 112.093
9 | CCn1c2cc(C)oc2c2cn[nH]c(=O)c21 [CBK284230] | 47.2838
10 | CCOc1ccc(-n2c(SC/C=C/c3ccccc3)nnc2-c2cccnc2)cc1 [CBK266222] | 94.9951
11 | CC(O)(CC(=O)O)CC(=O)OCCc1ccc2c(c1)CCC2 (stereo not shown) [CBK017766] | 57.2937
12 | OCCN(CCO)CC1CC=CCC1 (stereo not shown) [CBK261907] | 92.9305
13 | CCOC(=O)c1cnc(NS(=O)(=O)c2cccc(Cl)c2C)nc1C [CBK004707] | 98.5068
14 | OCCNc1nccnc1-c1ccoc1 [CBK036580] | 78.0867
15 | CCCc1[nH]nc(O)c1CCc1ccc(OC)cc1OC [CBK081123] | 78.8973
16 | COc1cccc(-c2cncc(C3CCN(C(=O)CCOc4ccccc4)CC3)n2)c1 [CBK286153] | 92.778
17 | CCOc1cc2c(cc1CN1CCN(Cc3noc(C)n3)CC1)CCC2 [CBK307138] | 76.7034
18 | COc1cccc(CNCC(c2ccnn2C)C(C)C)n1 (stereo not shown) [CBK304858] | 50.4916
19 | Oc1cc(-c2ccccc2)nc(NNc2ccccc2)n1 [CBK261716] | 69.3687
20 | CCCS(=O)(=O)c1ccc2[nH]c(NC(=O)c3cnc(-c4ccccc4)c(-c4ccncc4)c3)nc2c1 [CBK037426] | 74.9376

Row | Structure (SMILES) | % of control remaining
21 | O=C(NCC(O)c1ccc([N+](=O)[O-])cc1)c1cccc(S(=O)(=O)N2CCCC2)c1 (stereo not shown) [CBK268847] | 94.7713
22 | O=C(Cn1cc(/C=C/c2[nH]c(=O)[nH]c(=O)c2[N+](=O)[O-])c2ccccc21)Nc1ccc2c(c1)OCO2 [CBK267036] | 122.367
23 | O=C1/C(=N\O)c2cc(Cl)ccc2N1Cc1ccccc1 [CBK288468] | 27.8754
24 | CN1CCN(C(=O)Nc2ccc(Cc3ccc(NC(=O)N4CCN(C)CC4)cc3)cc2)CC1 [CBK264852] | 86.9263
25 | Cc1csc(C(Cc2cccs2)NC(=O)C2CCOC2)n1 (stereo not shown) [CBK285123] | 74.9291
26 | Cc1nc(C)n(CC2CCCN(Cc3cc(C#N)cs3)C2)n1 (stereo not shown) [CBK304787] | 44.3416
27 | Cc1n[nH]nc1C(=O)N(C)CC(C)Oc1ccc(Cl)c(Cl)c1 (stereo not shown) [CBK306173] | 62.9691
28 | COc1ccc(F)c(CN(CC2CCNCC2)C(=O)Nc2c(F)cccc2F)c1 [CBK049804] | 88.4175
29 | COc1ccc(C)cc1CN(C)C(=O)c1cccc(NC(=O)C2CC2)c1 [CBK305414] | 107.52
30 | COc1ccc(S(=O)(=O)N(C)CC(=O)Nc2ccc(S(N)(=O)=O)cc2)cc1C [CBK267333] | 97.936
31 | CC(C)c1nc2c(c(=O)c3ccccc3n2C)c(=O)n1-c1ccccc1 [CBK287947] | 95.4763
32 | O=C(Nc1ccccc1)N[C@H]1CO[C@H]2[C@@H]1OC[C@H]2OCc1ccccc1 [CBK289488] | 102.622
33 | O=C(NCc1ccc(F)cc1)N(Cc1cccc(Cl)c1)CC1CCNCC1 [CBK119479] | 85.0191
34 | CCOC(=O)NC(NCc1ccco1)(C(F)(F)F)C(F)(F)F [CBK057654] | 49.4619
35 | CN1CCN(CC(CC(=O)Nc2c(F)cccc2F)C(=O)O)CC1 (stereo not shown) [CBK286867] | 81.6904
36 | O=C(c1ccco1)c1cnc2ccccn2c1=O [CBK010791] | 68.4787
37 | O=C(c1cccs1)N1CCC(c2onc3c2CCCC3)CC1 [CBK285181] | 95.2991
38 | Cc1cccc(OCCSc2nc3c(N)ncn(Cc4ccccc4)c-3n2)c1 [CBK266843] | 93.9485
39 | CC(C)NS(=O)(=O)c1ccc(NC(=O)COc2ccc3ccccc3c2Br)cc1 [CBK267920] | 98.2965
40 | N#Cc1cccc(C(=O)N2CCC3(CCN(C(=O)c4cc(F)c(F)cc4F)C3)C2)c1 (stereo not shown) [CBK131387] | 103.659
